Source: patent US20230416345A1, “NEW TYPE II COLLAGEN BINDING PROTEINS” (Navigo Proteins GmbH, priority 2020, published 2023)

Legend:
[1] = target: T1, 67B89 (domain of fibronectin) (Homo sapiens, UniProt P02751); experiment: ELISA specificity vs 67B89; type: binding
T1 construct: unrelated fibronectin domain EDB (67B89) could be observed; made in house; host or cells: E. coli
Protocol: (§1) High binding plates (Greiner, 781061) were immobilized with 2.5 μg/ml recombinant human collagen type II (h Col II, Chondrex, CHX-20051), rabbit collagen type II (rbCol II, prepared from rabbit eyes), porcine collagen type II (p Col II, prepared from porcine eyes), human collagen type I, (h Col I, Sigma, C5483-1MG), human collagen type V (h Col V, Abcam, ab7537), human collagen type III (h Col Ill, Abcam, ab7535) and 67B89 (domain of fibronectin, produced in E. coli) respectively over night at 4° C. ELISA-plates were washed 3 times with PBST (PBS+ 0.1% Tween) and blocked with 3% BSA/0.5% Tween/PBS 2 h at RT. After washing with PBST, dilution series of 1.1 μM to 7×10^−4 nM of dimers (CID 211999, CID 212000), dilution series of 100 nM to 7×10^−6 nM of tetramers (CID 212001 and CID 212704) and dilution series of 10 μM to 2 nM of dimer (CID 212705) were incubated on ELISA-plates 1 h at rt. Plates were washed with PBST and incubated with biotinylated anti-StrepTag-ab (Antikörper-online, ABIN1573895) with a dilution of 1:10.000 for 1 h at rt. The binding was visualized with a-rabbit-IgG-HRP (Sigma, A9169) with a dilution of 1:10.000 and as substrate TMB Plus von KEM EN TEC Diagnostic, Kat-Nr. 4395.

[2] = Soluble expression in Escherichia coli BL21(DE3); type: physicochemical; conditions: expression in E. coli BL21(DE3)
Protocol: Variants with affinity tag were expressed in Escherichia coli BL21(DE3) using a low copy plasmid system under regulation of a T7 promoter. Proteins were produced in soluble form after induction by lactose included in the medium (autoinduction medium). BL21 (DE3) competent cells were transformed with the expression plasmid, spread onto selective agar plates (kanamycin) and incubated overnight at 37° C. Precultures were inoculated from single colony in 3 ml 2×YT medium supplemented with 50 μg/ml kanamycin and cultured for 6 hours at 37° C. at 200 rpm in a conventional orbital shaker in culture tubes. […] Cultures were transferred to an orbital shaker and incubated at 30° C. and 200 rpm. Recombinant protein expression was induced by metabolizing glucose and subsequently allowing lactose to enter the cells. Cells were grown overnight for approx. 17 hours to reach a final OD600 of about 2-4. Before the harvest, the OD600 was measured, samples adjusted to 0.6/OD600 were withdrawn, pelleted and frozen at −20° C. To collect biomass cells were centrifuged at 12000×g for 15 min at 22° C. Pellets were weighed (wet weight). Cells were stored at −20° C. before processing.
Proteins with affinity tag were purified by affinity chromatography and size exclusion. After affinity chromatography purification using Strep-Tactin Superflow high capacity cartridges (IBA Lifesciences) a size exclusion chromatography (SEC) was performed using an Äkta system and a Superdex™ 200 HiLoad 16/600 column (Cytiva). Fused variants with Aflibercept were purified via MabSelect SuRe (Cytiva) affinity chromatography followed by a size exclusion chromatography (SEC) using an Äkta system and a Superdex™ 200 HiLoad 16/600 column (Cytiva). All chromatography processing steps were carried out on AKTA systems using matrices from Cytiva. Homogenous species of all purified ligands were obtained; no aggregation was detected. Following SOS-PAGE analysis positive fractions were pooled and their protein concentrations were measured. Further analysis included SOS-PAGE, SE-HPLC and RP-HPLC. Protein concentrations were determined by absorbance measurement at 280 nm using the molar absorbent coefficient. Reversed phase chromatography (RP-HPLC) was performed using a Dionex HPLC system and a PLRP-S (5 μm, 300 Å) column (Agilent). Analytic size exclusion chromatography (SE-HPLC) was performed using a Dionex HPLC system and a Superdex200 increase 5/150 GL (Cytiva). Binding of Collagen II was evaluated by SPR measurements using a Biacore 3000 system. Purified Collagen II was obtained from Chondrex.inc and VEGF-165 was obtained from Millipore. Targets were immobilized on a CM5-Sensor via NHS/EDC chemistry (immobilization level ˜1000 RU). Binding molecules were injected at different concentration and affinity was calculated by langmuir 1:1 binding model.

[3] = target: T2, human collagen type I (h Col I) (Homo sapiens, UniProt P02452+P08123); experiment: ELISA specificity vs human collagen type I; type: binding
T2 construct: purchased Sigma C5483-1MG
T2 sequence (P02452 162-1218 limits assumed): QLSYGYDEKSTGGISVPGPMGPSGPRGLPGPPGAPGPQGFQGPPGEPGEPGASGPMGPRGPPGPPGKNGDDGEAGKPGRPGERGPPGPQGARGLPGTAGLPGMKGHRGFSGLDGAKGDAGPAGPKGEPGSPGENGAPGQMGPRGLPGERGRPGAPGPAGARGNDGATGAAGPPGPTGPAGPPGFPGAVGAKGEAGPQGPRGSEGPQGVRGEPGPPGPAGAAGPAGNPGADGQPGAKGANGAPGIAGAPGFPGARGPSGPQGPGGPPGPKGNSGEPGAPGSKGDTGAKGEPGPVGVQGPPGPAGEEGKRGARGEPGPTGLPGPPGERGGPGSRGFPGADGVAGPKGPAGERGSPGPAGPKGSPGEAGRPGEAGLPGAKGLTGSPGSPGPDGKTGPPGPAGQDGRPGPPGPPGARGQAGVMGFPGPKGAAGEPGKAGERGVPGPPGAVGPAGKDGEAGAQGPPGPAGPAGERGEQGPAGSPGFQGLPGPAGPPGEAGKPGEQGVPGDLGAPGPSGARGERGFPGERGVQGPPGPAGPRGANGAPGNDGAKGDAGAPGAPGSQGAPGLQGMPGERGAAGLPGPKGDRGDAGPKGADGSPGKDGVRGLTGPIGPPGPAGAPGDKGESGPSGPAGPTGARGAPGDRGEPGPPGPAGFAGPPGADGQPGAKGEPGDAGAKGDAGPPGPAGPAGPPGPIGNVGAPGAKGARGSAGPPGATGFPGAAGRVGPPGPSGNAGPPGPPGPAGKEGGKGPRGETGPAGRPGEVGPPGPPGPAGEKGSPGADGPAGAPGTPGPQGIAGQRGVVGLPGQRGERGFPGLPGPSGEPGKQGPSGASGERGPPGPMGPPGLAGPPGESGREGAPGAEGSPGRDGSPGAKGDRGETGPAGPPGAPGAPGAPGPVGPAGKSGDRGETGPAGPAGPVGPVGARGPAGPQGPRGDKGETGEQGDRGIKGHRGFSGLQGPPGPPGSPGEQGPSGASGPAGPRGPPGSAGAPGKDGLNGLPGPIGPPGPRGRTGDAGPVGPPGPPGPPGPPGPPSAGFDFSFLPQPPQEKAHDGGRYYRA
T2 sequence (P08123 80-1119 limits assumed): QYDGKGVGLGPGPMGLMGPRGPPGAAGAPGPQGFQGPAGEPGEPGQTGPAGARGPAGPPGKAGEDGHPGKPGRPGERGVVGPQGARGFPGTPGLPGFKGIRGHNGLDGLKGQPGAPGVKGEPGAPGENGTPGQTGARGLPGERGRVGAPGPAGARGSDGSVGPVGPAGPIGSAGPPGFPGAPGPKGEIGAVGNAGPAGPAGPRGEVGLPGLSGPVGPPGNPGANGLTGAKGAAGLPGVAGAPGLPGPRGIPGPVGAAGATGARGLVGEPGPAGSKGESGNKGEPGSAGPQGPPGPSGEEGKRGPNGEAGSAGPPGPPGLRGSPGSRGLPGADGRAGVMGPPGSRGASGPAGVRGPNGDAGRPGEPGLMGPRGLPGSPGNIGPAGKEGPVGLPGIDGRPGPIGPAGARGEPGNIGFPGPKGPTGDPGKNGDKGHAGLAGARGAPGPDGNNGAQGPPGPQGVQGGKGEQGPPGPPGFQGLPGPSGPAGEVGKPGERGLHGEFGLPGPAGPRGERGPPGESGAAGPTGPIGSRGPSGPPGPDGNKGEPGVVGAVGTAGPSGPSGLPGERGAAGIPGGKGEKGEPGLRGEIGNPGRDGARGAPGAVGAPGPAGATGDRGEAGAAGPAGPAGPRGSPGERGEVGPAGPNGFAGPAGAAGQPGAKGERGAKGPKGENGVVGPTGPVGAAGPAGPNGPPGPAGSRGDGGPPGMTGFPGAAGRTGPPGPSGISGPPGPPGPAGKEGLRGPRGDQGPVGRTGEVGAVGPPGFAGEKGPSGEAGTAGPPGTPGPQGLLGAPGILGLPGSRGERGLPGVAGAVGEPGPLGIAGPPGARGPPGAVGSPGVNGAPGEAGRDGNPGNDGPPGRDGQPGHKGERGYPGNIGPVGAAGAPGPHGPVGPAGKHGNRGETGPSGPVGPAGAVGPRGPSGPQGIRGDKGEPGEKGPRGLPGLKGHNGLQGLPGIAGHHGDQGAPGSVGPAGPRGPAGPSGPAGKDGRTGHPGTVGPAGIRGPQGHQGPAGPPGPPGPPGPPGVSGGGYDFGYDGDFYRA
Protocol: as §1

[4] = target: T3, human collagen type V (h Col V) (Homo sapiens, UniProt P05997+P20908); experiment: ELISA specificity vs human collagen type V; type: binding
T3 construct: purchased Abcam ab7537
Protocol: as §1

[5] = target: T4, human collagen type III (Homo sapiens, UniProt P02461); experiment: ELISA specificity vs human collagen type III; type: binding
T4 construct: purchased Abcam ab7535
T4 sequence (P02461 154-1221 limits assumed): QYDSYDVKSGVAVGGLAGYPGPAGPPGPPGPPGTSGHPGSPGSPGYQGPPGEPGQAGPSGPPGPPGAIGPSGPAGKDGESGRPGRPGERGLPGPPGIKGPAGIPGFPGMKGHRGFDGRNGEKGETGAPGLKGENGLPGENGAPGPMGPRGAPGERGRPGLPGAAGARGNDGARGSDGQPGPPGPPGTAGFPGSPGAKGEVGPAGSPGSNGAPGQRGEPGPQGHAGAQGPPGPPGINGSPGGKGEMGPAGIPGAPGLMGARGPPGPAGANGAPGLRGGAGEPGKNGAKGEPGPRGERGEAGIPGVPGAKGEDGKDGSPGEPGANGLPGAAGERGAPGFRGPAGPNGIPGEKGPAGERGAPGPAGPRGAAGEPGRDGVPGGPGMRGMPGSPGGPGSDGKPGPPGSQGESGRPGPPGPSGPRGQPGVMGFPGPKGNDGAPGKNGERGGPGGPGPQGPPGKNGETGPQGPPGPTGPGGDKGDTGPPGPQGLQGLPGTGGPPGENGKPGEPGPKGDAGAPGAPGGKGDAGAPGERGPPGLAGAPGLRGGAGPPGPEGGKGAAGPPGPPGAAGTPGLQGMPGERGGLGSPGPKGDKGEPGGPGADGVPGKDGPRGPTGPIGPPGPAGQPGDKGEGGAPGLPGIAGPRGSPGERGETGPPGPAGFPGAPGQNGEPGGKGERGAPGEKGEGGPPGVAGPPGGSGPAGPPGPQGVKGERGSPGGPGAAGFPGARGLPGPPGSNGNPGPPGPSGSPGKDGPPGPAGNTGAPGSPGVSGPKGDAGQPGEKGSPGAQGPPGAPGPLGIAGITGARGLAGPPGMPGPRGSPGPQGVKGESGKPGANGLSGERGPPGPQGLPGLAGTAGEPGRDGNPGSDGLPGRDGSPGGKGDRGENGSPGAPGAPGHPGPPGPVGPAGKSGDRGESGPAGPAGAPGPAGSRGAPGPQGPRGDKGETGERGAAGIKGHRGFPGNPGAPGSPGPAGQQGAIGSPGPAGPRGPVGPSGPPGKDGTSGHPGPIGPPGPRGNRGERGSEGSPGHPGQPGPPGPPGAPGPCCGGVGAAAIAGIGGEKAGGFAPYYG
Protocol: as §1

[6] = target: T5, recombinant human collagen type II (h Col II) (Homo sapiens, UniProt P02458); experiment: KD-determination by ELISA vs human collagen type II; type: binding
T5 construct: purchased Chondrex CHX-20051
T5 sequence (P02458 182-1241): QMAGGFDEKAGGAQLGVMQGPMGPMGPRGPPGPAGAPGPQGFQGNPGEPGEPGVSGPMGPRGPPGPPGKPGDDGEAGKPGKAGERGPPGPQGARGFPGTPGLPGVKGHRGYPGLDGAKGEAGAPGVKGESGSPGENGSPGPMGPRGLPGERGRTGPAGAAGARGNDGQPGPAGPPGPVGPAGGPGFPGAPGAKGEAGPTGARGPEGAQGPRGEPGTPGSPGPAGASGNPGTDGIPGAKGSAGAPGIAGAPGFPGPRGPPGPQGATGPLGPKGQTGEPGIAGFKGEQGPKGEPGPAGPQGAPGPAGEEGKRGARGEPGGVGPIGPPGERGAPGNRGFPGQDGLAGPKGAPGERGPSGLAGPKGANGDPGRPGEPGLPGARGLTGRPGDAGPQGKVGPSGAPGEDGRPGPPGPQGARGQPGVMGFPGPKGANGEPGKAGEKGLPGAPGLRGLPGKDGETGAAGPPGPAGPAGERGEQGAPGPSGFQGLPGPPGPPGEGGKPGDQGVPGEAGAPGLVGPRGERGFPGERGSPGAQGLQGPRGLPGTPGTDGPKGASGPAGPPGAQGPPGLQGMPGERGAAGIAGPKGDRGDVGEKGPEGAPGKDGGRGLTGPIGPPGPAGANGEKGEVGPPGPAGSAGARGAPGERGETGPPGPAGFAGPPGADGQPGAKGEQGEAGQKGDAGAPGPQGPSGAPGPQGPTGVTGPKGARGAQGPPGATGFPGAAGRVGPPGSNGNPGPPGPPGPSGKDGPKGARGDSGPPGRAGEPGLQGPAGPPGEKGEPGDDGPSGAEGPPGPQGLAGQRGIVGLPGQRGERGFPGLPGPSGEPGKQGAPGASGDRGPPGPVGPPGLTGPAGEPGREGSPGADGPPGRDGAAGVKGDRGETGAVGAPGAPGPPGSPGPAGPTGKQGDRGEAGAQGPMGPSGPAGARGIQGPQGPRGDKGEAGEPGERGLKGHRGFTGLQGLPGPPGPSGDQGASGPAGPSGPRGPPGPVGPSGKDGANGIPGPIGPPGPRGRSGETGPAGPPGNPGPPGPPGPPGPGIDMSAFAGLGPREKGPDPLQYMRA
Protocol: as §1

[7] = target: T6, porcine collagen type II (p Col II) (Sus scrofa, UniProt A0A287A2Q7); experiment: KD-determination by ELISA vs porcine collagen type II; type: binding
T6 construct: porcine collagen type II (p Col II, prepared from porcine eyes); from tissue; host or cells: porcine eyes
T6 sequence (A0A287A2Q7 26-1486): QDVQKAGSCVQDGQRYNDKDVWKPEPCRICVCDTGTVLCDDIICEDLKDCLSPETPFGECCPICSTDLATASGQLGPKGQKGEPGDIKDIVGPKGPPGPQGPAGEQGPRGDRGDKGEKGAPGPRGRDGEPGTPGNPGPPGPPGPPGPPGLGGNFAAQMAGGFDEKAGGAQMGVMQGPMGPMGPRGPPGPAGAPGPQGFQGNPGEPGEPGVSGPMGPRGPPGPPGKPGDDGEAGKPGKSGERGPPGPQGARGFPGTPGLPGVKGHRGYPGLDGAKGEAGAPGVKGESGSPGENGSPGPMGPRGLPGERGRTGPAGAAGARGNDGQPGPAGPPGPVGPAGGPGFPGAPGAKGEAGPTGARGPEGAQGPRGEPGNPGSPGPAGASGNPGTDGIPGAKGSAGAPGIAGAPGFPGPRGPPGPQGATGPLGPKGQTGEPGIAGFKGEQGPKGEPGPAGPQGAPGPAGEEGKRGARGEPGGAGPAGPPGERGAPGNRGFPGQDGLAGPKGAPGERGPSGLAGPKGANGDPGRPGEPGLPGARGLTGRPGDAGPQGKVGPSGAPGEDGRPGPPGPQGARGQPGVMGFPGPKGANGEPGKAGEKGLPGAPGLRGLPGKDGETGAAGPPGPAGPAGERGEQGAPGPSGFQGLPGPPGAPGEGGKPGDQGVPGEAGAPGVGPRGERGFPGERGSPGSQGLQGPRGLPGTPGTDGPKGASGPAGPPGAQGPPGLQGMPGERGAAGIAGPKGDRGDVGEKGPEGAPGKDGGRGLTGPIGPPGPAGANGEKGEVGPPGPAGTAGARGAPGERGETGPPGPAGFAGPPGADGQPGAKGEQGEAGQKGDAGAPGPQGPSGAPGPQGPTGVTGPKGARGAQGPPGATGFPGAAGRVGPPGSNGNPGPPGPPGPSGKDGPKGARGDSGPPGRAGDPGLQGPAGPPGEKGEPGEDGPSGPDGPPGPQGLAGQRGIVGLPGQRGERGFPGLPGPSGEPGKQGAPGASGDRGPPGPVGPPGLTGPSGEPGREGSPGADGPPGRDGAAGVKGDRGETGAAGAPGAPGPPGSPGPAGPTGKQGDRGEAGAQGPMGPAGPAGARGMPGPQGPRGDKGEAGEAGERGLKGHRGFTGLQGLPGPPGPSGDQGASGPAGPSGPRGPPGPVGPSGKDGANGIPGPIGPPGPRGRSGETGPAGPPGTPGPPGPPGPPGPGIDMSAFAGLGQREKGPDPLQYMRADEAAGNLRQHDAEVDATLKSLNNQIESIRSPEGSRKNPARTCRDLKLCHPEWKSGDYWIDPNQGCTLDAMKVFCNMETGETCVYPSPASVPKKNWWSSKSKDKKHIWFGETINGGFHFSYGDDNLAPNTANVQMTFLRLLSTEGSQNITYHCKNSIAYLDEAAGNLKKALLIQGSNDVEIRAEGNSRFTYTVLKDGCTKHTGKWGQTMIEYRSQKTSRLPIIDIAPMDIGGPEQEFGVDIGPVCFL
Protocol: as §1

T1 sequence (P02751 1089-1540 limits assumed): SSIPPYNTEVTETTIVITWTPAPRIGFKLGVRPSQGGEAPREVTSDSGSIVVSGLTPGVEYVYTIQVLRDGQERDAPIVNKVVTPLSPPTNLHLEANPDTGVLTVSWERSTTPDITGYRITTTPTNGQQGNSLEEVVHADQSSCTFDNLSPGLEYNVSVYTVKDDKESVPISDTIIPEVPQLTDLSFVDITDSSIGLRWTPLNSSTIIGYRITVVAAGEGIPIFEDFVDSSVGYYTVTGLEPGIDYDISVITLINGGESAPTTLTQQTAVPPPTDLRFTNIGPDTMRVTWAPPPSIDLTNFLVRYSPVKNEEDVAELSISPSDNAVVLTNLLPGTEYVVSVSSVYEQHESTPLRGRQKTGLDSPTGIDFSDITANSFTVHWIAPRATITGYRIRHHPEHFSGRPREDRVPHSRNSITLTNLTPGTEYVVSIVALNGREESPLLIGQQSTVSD

B1: CID 212705: dimer of SEQ ID NO: 15 (protein)
chain: IAAKFDEAQQAADKEILHLPNLTEQQRNYFRQWLRDDPSVSPTVLGTAQQLNDSQAPKIAAKFDEAQQAADKEILHLPNLTEQQRNYFRQWLRDDPSVSPTVLGTAQQLNDSQAPKSAWSHPQFEK
modifications: Col2 binding protein (dimer of SEQ ID NO: 15) (CID212705)
- binding to domain of fibronectin (67B89) (ELISA) [1]: No unspecific binding
- Solubility Soluble expression [2]: 100%
- binding to type I collagen (ELISA) [3]: No unspecific binding
- binding to type V collagen (ELISA) [4]: No unspecific binding
- binding to type III collagen (ELISA) [5]: No unspecific binding
- binding affinity (KD) to type II collagen by ELISA, in words ([6]; type II collagen, tetramers: of different species): 1-2-digit nM

B2: CID 209130: hetero-dimeric binding protein comprising SEQ ID NO: 4 and SEQ ID NO: 11 linked head-to-tail (protein)
chain: IAAKFDEAQIAAFWEIYHLPNLTEEQRTAFIWSLYDDPSVSLEVLGEAQKLNDSQAPKIAAKFDEAQQAAFYEILHLPNLTEQQRNYFIQWLRDDPSVSPTVLGTAQQLNDSQAPK
modifications: Col2 binding protein (dimer) 209130 (210484)
- Solubility Soluble expression [2]: 90%
- specific binding vs porcine type II collagen (ELISA) [7]: 0.11 µM
- binding affinity (KD) to human type II collagen (ELISA) [6]: 0.22 µM

B3: CID 211138: dimeric Type II collagen binding protein of SEQ ID NO: 34 (protein)
chain: IAAKFDEAQYAAFYEIWHLPNLTEEQREAFIASLADDPSVSLEVLGEAQKLNDSQAPKIAAKFDEAQQAAFYEILHLPNLTEQQRNYFIQWLRDDPSVSPTVLGTAQQLNDSQAPK
modifications: Col2 binding protein (dimer) 211138
- Solubility Soluble expression [2]: 95%
- specific binding vs porcine type II collagen (ELISA) [7]: 0.81 µM
- binding affinity (KD) to human type II collagen (ELISA) [6]: 0.45 µM

B4: CID 210970: hetero-dimeric binding protein comprising SEQ ID NO: 14 (protein)
chain: IAAKFDEAQWAAFLEIVHLPNLTEEQRLKFIYSLRDDPSVSLEVLGEAQKLNDSQAPKIAAKFDEAQQAADKEILHLPNLTEQQRNYFRQWLRDDPSVSLEVLGHAQLLNDSQAPK
modifications: Col2 binding protein (dimer) 210970
- Solubility Soluble expression [2]: 90%

B5: CID 210971: heterodimer with SEQ ID NO: 14 as N-terminal monomer (protein)
chain: IAAKFDEAQWAAFLEIVHLPNLTEEQRLKFRYSLRDDPSVSLEVLGEAQKLNDSQAPKIAAKFDEAQQAADKEILHLPNLTEQQRNYFRQWLRDDPSVSLEVLGHAQLLNDSQAPK
modifications: Col2 binding protein (dimer) 210971
- Solubility Soluble expression [2]: 60%

B6: CID 210972: heterodimer with SEQ ID NO: 14 as C-terminal monomer (protein)
chain: IAAKFDEAQWAADLEIVHLPNLTEEQRLKFIYSLRDDPSVSLEVLGEAQKLNDSQAPKIAAKFDEAQQAADKEILHLPNLTEQQRNYFRQWLRDDPSVSLEVLGHAQLLNDSQAPK
modifications: Col2 binding protein (dimer) 210972
- Solubility Soluble expression [2]: 70%

B7: CID 210973: heterodimer with SEQ ID NO: 14 as C-terminal monomer (protein)
chain: IAAKFDEAQWAADLEIVHLPNLTEEQRLKFRYSLRDDPSVSLEVLGEAQKLNDSQAPKIAAKFDEAQQAADKEILHLPNLTEQQRNYFRQWLRDDPSVSLEVLGHAQLLNDSQAPK
modifications: Col2 binding protein (dimer) 210973
- Solubility Soluble expression [2]: 90%
